Data as given in publication PMC3791423, “A Key Hydrophobic Patch Identified in an AAA^+ Protein Essential for Its In Trans Inhibitory Regulation” (Journal of Molecular Biology, 2013).

Biological target: PspA_(1–186) (E. coli, UniProt P0AFM6 in part)
Assay: native gel or EMSA; PspA–F binding assay: 10 μM PspF_(1–275) and 30 μM PspA_(1–186) in STA buffer, 10 μl; native gel stained with SYPRO Ruby
Details: both partners purified

B1: PspF_([…]) F60C (domain or fragment)
chain: not shown
notes: E. coli PspF, […], site-directed mutant of pPB1
binding result: binds

B2: PspF_([…]) H50C (domain or fragment)
chain: not shown
notes: as for B1
binding result: binds

B3: PspF_([…]) S62C (domain or fragment)
chain: not shown
notes: as for B1
binding result: binds

B4: PspF_([…]) G58C (domain or fragment)
chain: not shown
notes: as for B1
binding result: binds

B5: PspF_([…]) I61C (domain or fragment)
chain: not shown
notes: as for B1
binding result: binds

B6: PspF_([…]) R55C (domain or fragment)
chain: not shown
notes: as for B1
binding result: binds

B7: PspF_([…]) S53C (domain or fragment)
chain: not shown
notes: as for B1
binding result: binds

B8: PspF_([…]) S54C (domain or fragment)
chain: not shown
notes: as for B1
binding result: binds

B9: PspF_([…]) Q57C (domain or fragment)
chain: not shown
notes: as for B1
binding result: binds

B10: PspF_([…]) P59C (domain or fragment)
chain: not shown
notes: as for B1
binding result: binds
